This is one part of the list. Cleavage of a single-stranded DNA pool by Rep nickase domains was read by sequencing (3 µM enzyme, 1 h, 37 °C); shown is the middle of each 90-letter strand. Numbers give uncut DNA relative to the enzyme-free pool, as log2; the lower, the more was cut; hits are not called. Counts are relative to all reads, so uncut sequences can rise above 0 when many others are cut.
Columns and labels:
Experiment in all cases: uncleaved DNA left, log2 of reads against the no-enzyme library (log2 ratio); higher = less cleavage (more negative = more Rep cleavage of the k-mer); sequences stand for … in CTCGTCCG…ACCGGAGA
[1] = system: T1, Rep nickase domain of Muscovy duck circovirus
T1 sequence (Rep 1-111, printed without the tag): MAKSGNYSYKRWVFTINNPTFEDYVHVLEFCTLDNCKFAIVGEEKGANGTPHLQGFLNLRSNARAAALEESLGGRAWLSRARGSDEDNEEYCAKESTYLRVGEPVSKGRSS
Experimental: (§1)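 A pool of 90-nt single-stranded DNAs with seven random bases just before the constant AC of the nick site (name = the seven bases) was cut by 3 µM recombinant His6-SUMO-tagged Rep nickase domain (300 nM DNA, 50 mM HEPES pH 8.0, 50 mM NaCl, 1 mM MnCl2, 1 h, 37 °C, three replicates). Uncut DNA was amplified and sequenced.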

[2] = system: T2, Rep nickase domain of banana bunchy top virus
T2 sequence (Rep 1-94, printed without the tag): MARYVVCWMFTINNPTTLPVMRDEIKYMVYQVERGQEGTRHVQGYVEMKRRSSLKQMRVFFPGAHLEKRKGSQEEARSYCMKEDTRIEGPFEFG
Experimental: as §1

[3] = system: T3, Rep nickase domain of cabbage leaf curl virus
T3 sequence (Rep 1-116, printed without the tag): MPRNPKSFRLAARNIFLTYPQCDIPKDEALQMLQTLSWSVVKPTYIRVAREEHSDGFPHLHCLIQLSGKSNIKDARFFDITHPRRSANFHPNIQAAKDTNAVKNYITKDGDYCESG
Experimental: as §1

[4] = system: T4, Rep nickase domain of chickpea chlorotic dwarf virus
T4 sequence (Rep 1-124, printed without the tag): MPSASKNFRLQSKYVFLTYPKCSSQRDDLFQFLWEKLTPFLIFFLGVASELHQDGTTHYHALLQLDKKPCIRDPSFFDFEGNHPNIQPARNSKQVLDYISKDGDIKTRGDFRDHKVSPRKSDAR
Experimental: as §1

[5] = system: T5, Rep nickase domain of faba bean necrotic yellows virus
T5 sequence (Rep 1-98, printed without the tag): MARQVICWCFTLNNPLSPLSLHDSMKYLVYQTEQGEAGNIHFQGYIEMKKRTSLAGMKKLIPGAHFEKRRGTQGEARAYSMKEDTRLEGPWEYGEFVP
Experimental: as §1

[6] = system: T6, Rep nickase domain of maize striate mosaic virus
T6 sequence (Rep 1-117, printed without the tag): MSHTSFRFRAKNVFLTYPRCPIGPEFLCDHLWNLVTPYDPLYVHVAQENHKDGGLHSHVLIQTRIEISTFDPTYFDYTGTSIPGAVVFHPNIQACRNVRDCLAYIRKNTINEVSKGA
Experimental: as §1

[7] = system: T7, Rep nickase domain of porcine circovirus 2
T7 sequence (Rep 2-116, printed without the tag): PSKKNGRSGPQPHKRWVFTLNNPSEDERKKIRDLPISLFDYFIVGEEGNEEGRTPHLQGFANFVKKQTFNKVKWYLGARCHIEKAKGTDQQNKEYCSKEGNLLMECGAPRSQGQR
Experimental: as §1

[8] = system: T8, Rep nickase domain of tomato yellow leaf curl virus
T8 sequence (Rep 1-136, printed without the tag): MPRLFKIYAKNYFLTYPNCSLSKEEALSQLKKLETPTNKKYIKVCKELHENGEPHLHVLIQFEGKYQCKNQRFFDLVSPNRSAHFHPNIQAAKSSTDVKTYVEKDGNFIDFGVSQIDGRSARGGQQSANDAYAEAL
Experimental: as §1

[9] = system: T9, Rep nickase domain of wheat dwarf virus
T9 sequence (Rep 1-137, printed without the tag): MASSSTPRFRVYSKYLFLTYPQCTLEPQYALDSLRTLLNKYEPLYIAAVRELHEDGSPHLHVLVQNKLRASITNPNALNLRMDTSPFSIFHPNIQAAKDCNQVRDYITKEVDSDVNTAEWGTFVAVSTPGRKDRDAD
Experimental: as §1

| Sequence | uncleaved DNA left (log2) [1] | uncleaved DNA left (log2) [2] | uncleaved DNA left (log2) [3] | uncleaved DNA left (log2) [4] | uncleaved DNA left (log2) [5] | uncleaved DNA left (log2) [6] | uncleaved DNA left (log2) [7] | uncleaved DNA left (log2) [8] | uncleaved DNA left (log2) [9] |
| --- | --- | --- | --- | --- | --- | --- | --- | --- | --- |
| AAATTCA | -0.502 | 0.00938 | -1.4 | -2.48 | 0.0109 | -1.08 | -1.47 | 0.022 | -0.369 |
| TGCAAAG | 0.166 | 0.0905 | -0.567 | -0.44 | 0.155 | -1.07 | 0.207 | 0.0464 | 0.135 |
| AGCATCA | 0.0421 | 0.159 | 0.353 | 0.371 | -0.0365 | 0.488 | -0.451 | -0.00528 | 0.129 |
| GCGATGG | -0.056 | -0.118 | -0.215 | 0.566 | -0.041 | 1.22 | 0.0775 | -0.032 | -0.0275 |
| AACGCAT | 0.0698 | -0.0478 | -0.0529 | -1.22 | -0.0391 | -0.0094 | -0.0811 | -0.0364 | -0.0238 |
| ATCATCA | 0.0284 | 0.0798 | -0.0184 | -0.942 | -0.00243 | -0.646 | -0.0735 | 0.107 | 0.192 |
| TTTCTAC | -0.467 | -0.0291 | 0.0676 | -1.53 | -0.0548 | -0.0395 | -0.227 | -0.0928 | -0.042 |
| TGATCTC | 0.0853 | 0.101 | 0.221 | 0.48 | -0.00893 | 1.1 | 0.0411 | 0.0637 | 0.0693 |
| TATAAGC | 0.0793 | 0.0619 | -0.0419 | -0.382 | 0.153 | -0.929 | 0.215 | 0.143 | 0.0488 |
| CAATCGG | -0.00862 | -0.0397 | 0.372 | 1.15 | -0.00323 | 1.09 | 0.119 | -0.0642 | -0.0487 |
| GATTTCC | -0.147 | -0.00666 | 0.315 | 0.621 | -0.0134 | 1.14 | -0.0537 | -0.0128 | 0.0315 |
| ACCTAAT | -1.24 | 0.0897 | 0.00263 | -0.967 | 0.0865 | -0.338 | -2.91 | 0.203 | 0.0452 |
| CTTTGAG | -0.0268 | 0.0579 | -0.833 | 0.262 | 0.0462 | -0.685 | 0.178 | 0.167 | -0.121 |
| AAAATCG | 0.123 | 0.116 | -0.884 | 0.0124 | 0.135 | -1.07 | 0.289 | 0.065 | 0.0259 |
| GAGCAAA | 0.0234 | 0.188 | 0.217 | 0.76 | 0.0567 | 0.933 | -0.421 | 0.106 | 0.0764 |
| GTAGATC | 0.243 | 0.187 | 0.455 | 1.02 | 0.153 | 1.72 | 0.263 | 0.162 | 0.288 |
| ACTACCA | -0.0795 | -0.0386 | -0.115 | -1.14 | -0.04 | -0.324 | -0.286 | -0.18 | -0.0471 |
| CGTAGCA | 0.0142 | 0.0305 | 0.3 | 0.83 | -0.118 | 0.625 | -0.178 | -0.0381 | 0.0681 |
| GCCCACA | -0.0675 | -0.0516 | 0.0467 | -0.276 | -0.205 | 0.133 | -0.0506 | -0.0698 | -0.0694 |
| TTGACGG | -0.00606 | 0.0199 | 0.497 | 1.36 | -0.00085 | 1.84 | 0.22 | 0.0599 | 0.161 |
| CACTTCT | -3.22 | -3.53 | -1.06 | -3.23 | -0.229 | -1.28 | -3.86 | 0.0261 | -0.235 |
| TATGCGT | 0.00101 | -0.114 | -1.01 | -0.207 | -0.121 | -1.08 | -0.0692 | 0.0138 | -0.146 |
| ACTCCAT | 0.055 | -0.0201 | -0.133 | -0.862 | 0.00028 | -0.601 | -0.141 | -0.00415 | 0.039 |
| AGGTAAT | -0.256 | 0.0396 | 0.164 | 0.778 | -0.0642 | 1.49 | -3.38 | -0.000601 | 0.0316 |
| TGAAATA | -0.000525 | 0.0715 | -0.0186 | -1.06 | 0.0304 | 0.00114 | 0.0428 | 0.0517 | 0.179 |
| CTCATCG | -0.0668 | 0.09 | -0.802 | 0.184 | 0.131 | -0.948 | 0.124 | -0.0111 | -0.0359 |
| TCAGCGT | -0.0971 | -0.186 | -0.795 | -0.599 | -0.00106 | -0.926 | 0.127 | 0.0504 | -0.142 |
| CTACGTA | -0.0891 | -0.12 | -0.127 | -1.42 | 0.066 | -0.602 | 0.00528 | -0.0105 | -0.105 |

— the supplement of paper PMC7826260
